Data on 68 compounds can be found in the supplement of paper PMC12582362.

Counter-ions that a name gives are not always drawn. Among all 1,500 compounds or so, about 30 (2%) showed activity.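 How the source made its calls: active = robust z-score below -2; a few such results were not called.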 The list shows a part of the results.

The experiment concerns optoTopBP1 Flp-In 293 T-REx (HEK293) cells. The experiment can be described thus: light-induced TopBP1 condensate (nuclear foci) count, plate-normalised robust z-score vs non-control wells; higher = more TopBP1 condensates (negative = condensation inhibitor), active = hit call of the paper. To be noted: 10 µM; incubation time 2 h.
As to `CCN(CC)CCN[C@@H](C(=O)OCCC(C)C)c1ccccc1` [Camylofine chlorhydrate], the “light-induced TopBP1 condensate (z-score)” value was inactive: -0.499.

For `CN1CCCN=C1/C=C/c1cccs1` [Pyrantel tartrate], the “light-induced TopBP1 condensate (z-score)” value was inactive: 0.346.

As to `NNC(=O)c1ccncc1` [Isoniazid], the “light-induced TopBP1 condensate (z-score)” value is inactive: 0.382.

As to `CC1(C)O[C@@H]2C[C@H]3[C@@H]4C[C@H](F)C5=CC(=O)CC[C@]5(C)[C@H]4[C@@H](O)C[C@]3(C)[C@]2(C(=O)CO)O1` [Flurandrenolide], the “light-induced TopBP1 condensate (z-score)” value is inactive: 1.46.

On to `O=C(O)c1cccnc1` [Niacin], for which the “light-induced TopBP1 condensate (z-score)” value is inactive: 0.225.

On to `CCCCc1oc2ccccc2c1C(=O)c1cc(I)c(OCCN(CC)CC)c(I)c1` [Amiodarone hydrochloride], for which the “light-induced TopBP1 condensate (z-score)” value is inactive: 0.163.

Take `O=c1[nH]c(=O)n([C@H]2C[C@H](O)[C@@H](CO)O2)cc1I` [Idoxuridine]: the “light-induced TopBP1 condensate (z-score)” value was inactive: 1.06.

Consider `Cc1cccc(N(C)C(=S)Oc2ccc3ccccc3c2)c1` [Tolnaftate], for which the “light-induced TopBP1 condensate (z-score)” value is inactive: -1.04.

On to `CCN1CCCC1CNC(=O)c1cc(S(N)(=O)=O)ccc1OC` (stereo not drawn) [Sulpiride], for which the “light-induced TopBP1 condensate (z-score)” value was inactive: 1.39.

For the compound `COc1ccc(-c2ccc3cc(C(=O)O)ccc3c2)cc1C12CC3CC(CC(C3)C1)C2` [Adapalene], the “light-induced TopBP1 condensate (z-score)” value is inactive: -1.74.

`Cc1ccc2c([nH]c(=O)c3c(=O)cc(C(=O)OCCC(C)C)oc32)c1C` [Repirinast]: the “light-induced TopBP1 condensate (z-score)” value is inactive: -0.432.

For the compound `NCCc1ccc(O)c(O)c1` [Dopamine hydrochloride], the “light-induced TopBP1 condensate (z-score)” value was inactive: 0.311.

With `C[C@H](CS)C(=O)N1CCC[C@H]1C(=O)O` [Captopril], the “light-induced TopBP1 condensate (z-score)” value was inactive: 1.17.

Take `CN(Cc1cc(Br)cc(Br)c1N)C1CCCCC1` [Bromhexine hydrochloride]: the “light-induced TopBP1 condensate (z-score)” value was inactive: 0.154.

On to `CC1(C)O[C@@H]2C[C@H]3[C@@H]4C[C@H](F)C5=CC(=O)C=C[C@]5(C)[C@H]4[C@@H](O)C[C@]3(C)[C@]2(C(=O)CO)O1` [Flunisolide], for which the “light-induced TopBP1 condensate (z-score)” value is inactive: 0.645.

Consider `COc1ccc(CNc2nc(N3CCC[C@H]3CO)ncc2C(=O)NCc2ncccn2)cc1Cl` [Avanafil], for which the “light-induced TopBP1 condensate (z-score)” value is inactive: 0.878.

Turning to `Cc1c(Nc2ncccc2C(=O)O)cccc1C(F)(F)F` [Flunixin meglumine], the “light-induced TopBP1 condensate (z-score)” value was inactive: 1.13.

`CC[C@H](c1ccc(O)cc1)[C@@H](CC)c1ccc(O)cc1` [Hexestrol]: the “light-induced TopBP1 condensate (z-score)” value is inactive: 0.346.

Consider `CC(C)(C)NC(=O)[C@H]1CC[C@H]2[C@@H]3CC[C@H]4NC(=O)C=C[C@]4(C)[C@H]3CC[C@]12C` [Finasteride], for which the “light-induced TopBP1 condensate (z-score)” value was inactive: 0.181.

Take `Nc1nc(N)c2nc(-c3ccccc3)c(N)nc2n1` [Triamterene]: the “light-induced TopBP1 condensate (z-score)” value is inactive: -0.439.

As for `CCCCOc1ccc(C(=O)CCN2CCCCC2)cc1` [Dyclonine hydrochloride], the “light-induced TopBP1 condensate (z-score)” value was inactive: -1.67.

As for `Cn1nnc2c(C(N)=O)ncn2c1=O` [Temozolomide], the “light-induced TopBP1 condensate (z-score)” value is inactive: -0.835.

For the compound `CN1[C@@H]2CC[C@H]1C[C@@H](OC(=O)C(O)c1ccccc1)C2` (mixture of isomers) [Homatropine hydrobromide (R,S)], the “light-induced TopBP1 condensate (z-score)” value was inactive: 1.71.

With `OC(CCN1CCCC1)(c1ccccc1)C1CCCCC1` (stereo not drawn) [Procyclidine hydrochloride], the “light-induced TopBP1 condensate (z-score)” value is inactive: -0.795.

On to `CC(CN(C)C)CN1c2ccccc2CCc2ccccc21` (stereo not drawn) [Trimipramine maleate salt], for which the “light-induced TopBP1 condensate (z-score)” value was inactive: 0.384.

On to `CC(C)C(=O)c1c(C(C)C)nn2ccccc12` [Ibudilast], for which the “light-induced TopBP1 condensate (z-score)” value is inactive: 0.181.

Regarding `C[N+](C)(C)C[C@H](O)CC(=O)[O-]` [Levocarnitine], the “light-induced TopBP1 condensate (z-score)” value was inactive: 0.0352.

As for `CC(C)(C)C(O)/C=C/c1ccc2c(c1)OCO2` (stereo not drawn) [Stiripentol], the “light-induced TopBP1 condensate (z-score)” value is inactive: 1.26.

Regarding `CCN(CCCc1ccccc1)CCCc1ccccc1` [Alverine citrate salt], the “light-induced TopBP1 condensate (z-score)” value was inactive: 0.4.

With `O=P(O)(O)C(O)(Cc1cccnc1)P(=O)(O)O` [Risedronic acid monohydrate], the “light-induced TopBP1 condensate (z-score)” value is inactive: -0.826.

On to `CCN(CC)C(=O)N1CCN(C)CC1` [Diethylcarbamazine citrate], for which the “light-induced TopBP1 condensate (z-score)” value is inactive: -0.531.

Consider `C=CC[N@@+]12CC[C@@]34c5ccccc5N5/C=C6/[C@H]7C[C@H]8[C@@]9(CC[N@@+]8(CC=C)C/C7=C/CO)c7ccccc7N(/C=C(/[C@@H](C[C@@H]31)/C(=C\CO)C2)[C@H]54)[C@@H]69` [Alcuronium chloride], for which the “light-induced TopBP1 condensate (z-score)” value was inactive: 0.0907.

For the compound `CCCC(C(=O)OCCN(CC)CC)(c1ccccc1)c1ccccc1` [Proadifen hydrochloride], the “light-induced TopBP1 condensate (z-score)” value was inactive: -0.0477.

With `Clc1ccc(COC(Cn2ccnc2)c2ccc(Cl)cc2Cl)cc1` (stereo not drawn) [Econazole nitrate], the “light-induced TopBP1 condensate (z-score)” value was inactive: -1.01.

As to `CO/N=C1\CN(c2nc3c(cc2F)c(=O)c(C(=O)O)cn3C2CC2)CC1CN` (stereo not drawn) [Gemifloxacin mesylate], the “light-induced TopBP1 condensate (z-score)” value was inactive: -1.54.

As to `Clc1ccccc1C(c1ccccc1)(c1ccccc1)n1ccnc1` [Clotrimazole], the “light-induced TopBP1 condensate (z-score)” value was inactive: 0.22.

On to `O=C(O)c1cc(=O)c2c(OCC(O)COc3cccc4oc(C(=O)O)cc(=O)c34)cccc2o1` [Cromolyn disodium salt], for which the “light-induced TopBP1 condensate (z-score)” value was inactive: 0.475.

In the case of `CC(=O)OC(C)C[N+](C)(C)C` (stereo not drawn) [Methacholine chloride], the “light-induced TopBP1 condensate (z-score)” value is inactive: 0.247.

For `CCCCOc1ccc(CC(=O)NO)cc1` [Bufexamac], the “light-induced TopBP1 condensate (z-score)” value was inactive: -0.576.

Regarding `Oc1c(Cl)cc(Cl)cc1Sc1cc(Cl)cc(Cl)c1O` [Bithionol], the “light-induced TopBP1 condensate (z-score)” value is inactive: -0.488.

As to `NC[C@H]1CC[C@H](C(=O)O)CC1` [Tranexamic acid], the “light-induced TopBP1 condensate (z-score)” value was inactive: 0.618.

As for `C=CCc1ccccc1OCC(O)CNC(C)C` (stereo not drawn) [Alprenolol hydrochloride], the “light-induced TopBP1 condensate (z-score)” value was inactive: -0.491.

Regarding `Cc1ccc(O)c([C@H](CCN(C(C)C)C(C)C)c2ccccc2)c1` [Tolterodine tartrate], the “light-induced TopBP1 condensate (z-score)” value was inactive: -1.32.

Take `Cc1c(O)cccc1C(=O)N[C@@H](CSc1ccccc1)[C@H](O)CN1C[C@H]2CCCC[C@H]2C[C@H]1C(=O)NC(C)(C)C` [Nelfinavir mesylate]: the “light-induced TopBP1 condensate (z-score)” value was inactive: -0.917.

Regarding `CCSc1ccc2c(c1)N(CCCN1CCN(C)CC1)c1ccccc1S2` [Thiethylperazine dimalate], the “light-induced TopBP1 condensate (z-score)” value was inactive: -1.19.

Take `CN(C)CCC(c1ccccc1)c1ccccn1` (stereo not drawn) [Pheniramine maleate]: the “light-induced TopBP1 condensate (z-score)” value is inactive: 0.115.

With `CC(CCc1ccc(O)cc1)NCCc1ccc(O)c(O)c1` (stereo not drawn) [Dobutamine hydrochloride], the “light-induced TopBP1 condensate (z-score)” value was inactive: 1.03.

As to `CNCC[C@@H](Oc1cccc2ccccc12)c1cccs1` [(R)-Duloxetine hydrochloride], the “light-induced TopBP1 condensate (z-score)” value was inactive: -1.75.

On to `Nc1ccc(S(N)(=O)=O)cc1` [Sulfanilamide], for which the “light-induced TopBP1 condensate (z-score)” value is inactive: 0.361.

In the case of `O=c1[nH]c(=O)n([C@H]2C[C@H](O)[C@@H](CO)O2)cc1/C=C/Br` [Brivudine], the “light-induced TopBP1 condensate (z-score)” value is inactive: 0.27.

With `CCC(C)(C)c1ccc(CC(C)CN2C[C@@H](C)O[C@@H](C)C2)cc1` (stereo partly drawn) [Amorolfine hydrochloride], the “light-induced TopBP1 condensate (z-score)” value was inactive: -0.629.

Turning to `CCOC(=O)c1ccc(C#Cc2ccc3c(c2)C(C)(C)CCS3)nc1` [Tazarotene], the “light-induced TopBP1 condensate (z-score)” value is inactive: -0.802.

For the compound `CC[C@]12CCCN3CCc4c(n(c5ccccc45)[C@@](O)(C(=O)OC)C1)[C@@H]32` [Vincamine], the “light-induced TopBP1 condensate (z-score)” value is inactive: -0.735.

With `CNC1(C)C2CCC(C2)C1(C)C` (stereo not drawn) [Mecamylamine hydrochloride], the “light-induced TopBP1 condensate (z-score)” value is inactive: -0.0167.

For the compound `CCC(C)(CN(C)C)OC(=O)c1ccccc1` (stereo not drawn) [Amyleine hydrochloride], the “light-induced TopBP1 condensate (z-score)” value is inactive: -0.0594.

As to `CC(=C(CCO)SSCC1CCCO1)N(C=O)Cc1cnc(C)nc1N` (stereo in doubt) [Fursultiamine Hydrochloride], the “light-induced TopBP1 condensate (z-score)” value is inactive: 1.42.

Turning to `C=C(NC(=O)C(=C)NC(=O)c1csc(C2=N[C@@H]3c4csc(n4)[C@H]4NC(=O)c5csc(n5)[C@H]([C@](C)(O)[C@@H](C)O)NC(=O)[C@H]5CSC(=N5)/C(=C/C)NC(=O)[C@H]([C@@H](C)O)NC(=O)c5csc(n5)[C@]3(CC2)NC(=O)[C@H](C)NC(=O)C(=C)NC(=O)[C@H](C)NC(=O)[C@H]([C@@H](C)CC)N[C@@H]2C=Cc3c([C@H](C)O)cc(nc3[C@H]2O)C(=O)O[C@@H]4C)n1)C(N)=O` [Thiostrepton], the “light-induced TopBP1 condensate (z-score)” value is active: -3.34.

In the case of `Cn1c(=O)c2c(ncn2CC(O)CO)n(C)c1=O` (stereo not drawn) [Diprophylline], the “light-induced TopBP1 condensate (z-score)” value was inactive: -0.324.

Regarding `NC(=O)c1cccnc1` [Nicotinamide], the “light-induced TopBP1 condensate (z-score)” value is inactive: -0.954.

On to `CC(C)(Oc1ccc(C2CC2(Cl)Cl)cc1)C(=O)O` (stereo not drawn) [Ciprofibrate], for which the “light-induced TopBP1 condensate (z-score)” value is inactive: 0.844.

On to `CC1=C(C(=O)O)N2C(=O)[C@@H](NC(=O)[C@H](N)c3ccc(O)cc3)[C@H]2SC1` [Cefadroxil], for which the “light-induced TopBP1 condensate (z-score)” value was inactive: 0.727.

Take `NS(=O)(=O)c1cc2c(cc1Cl)NC(Cc1ccccc1)NS2(=O)=O` (stereo not drawn) [Benzylhydrochlorothiazide]: the “light-induced TopBP1 condensate (z-score)” value is inactive: -0.404.

Turning to `C=CCN1CCCC1CNC(=O)c1cc2nn[nH]c2cc1OC` (stereo not drawn) [Alizapride hydrochloride], the “light-induced TopBP1 condensate (z-score)” value was inactive: 0.667.

`CCOC(=O)C1=C(C)NC(C)=C(C(=O)OC)C1c1cccc([N+](=O)[O-])c1` (stereo not drawn) [Nitrendipine]: the “light-induced TopBP1 condensate (z-score)” value is inactive: -0.152.

For `CCn1cc(C(=O)O)c(=O)c2cc(F)c(N3CCNCC3)cc21` [Norfloxacin], the “light-induced TopBP1 condensate (z-score)” value is inactive: -0.0857.

For `O=C(c1ccc(OCCN2CCCCC2)cc1)c1c(-c2ccc(O)cc2)sc2cc(O)ccc12` [Raloxifene hydrochloride], the “light-induced TopBP1 condensate (z-score)” value is inactive: -0.372.

With `CC(CN1c2ccccc2Sc2ccccc21)N(C)C` (stereo not drawn) [Promethazine hydrochloride], the “light-induced TopBP1 condensate (z-score)” value is inactive: -0.734.

`NS(=O)(=O)c1cc2c(cc1C(F)(F)F)NC(Cc1ccccc1)NS2(=O)=O` (stereo not drawn) [Bendroflumethiazide]: the “light-induced TopBP1 condensate (z-score)” value was inactive: 0.363.
